Test results as given in article PMC12136788.
The other results are listed elsewhere or left out.

B1: chr11:54532201:54532202:-_ENSMUSG00000052298_ENSMUST00000064104|mus_mus|motif|central (ssRNA)
RNA: GGGAGUUCUACAGUCCGACGAUCCAAUCAAUCAAAGGCAGUUAGAUAGUAAGCAAAGUGGACCGCAGGAUCCAGCGGCCGGUACUCAGCAGGGAAGAGGAACAGAAUGGGACCUGAGCAAAGGCCUCUUACUAACCACAGAGUCAACAGAGGAUUGAGCAUCA
B2: chr17:66251843:66251844:+_ENSG00000196704_ENST00000359783|hu_mus|motif|central (ssRNA)
RNA: GGGAGUUCUACAGUCCGACGAUCAAGUAUGUGUCCGAUCUCAUGGGUUAAAGUCUUACAGGAUCGCAACAGCAAAACACGGGUGAUUUCAGGGAUGUAAUAGUUAUCAAAAAUGGAGUAGUCAGUGGGAGACGUUAGCUGCAGCAACAGAGGAUUGAGCAUCA
B3: chr2:37230337:37230338:-_ENSMUSG00000075376_ENSMUST00000100143|mus_mus|motif|central (ssRNA)
RNA: GGGAGUUCUACAGUCCGACGAUCAAAUAGAAAUAAGUUAAUUAACUCUACUUUCACUAGAUGUAUCAUUGUAGGAUCCUGCGGGUUUAAUAACUGAGUUGUUAAUUUACUGUAGAAGCCAUUUAAAAUAGGAAAUGGCUCAGUCAACAGAGGAUUGAGCAUCA
B4: chr7:54825262:54825263:-_ENSG00000132432_ENST00000352861|hu_hu|hu_hu_hu_mus_False|78_88 (ssRNA)
RNA: GGGAGUUCUACAGUCCGACGAUCCUGCCGGCUGGGCUCCACAAACUUUACCUGAUCCAUGACUGCCGUUGGAUGGCGGAUUGAGAGCGUAGAGACACGUAGCUCAGGAGAGAACCGAGCCCAACGGAACCGGAAGCUGGCAACCAACAGAGGAUUGAGCAUCA
B5: 7480480_7480778_697_CDS_ENSG00000161960_ENST00000293831|human|control|control (ssRNA)
RNA: GGGAGUUCUACAGUCCGACGAUCGCGGAUACCCUCCAGGGUCAACUCUUCCUUCUUGACAAGAAUCCGAAUGGGGUCCCUCAUGAACUUCUUGGUCACCUCAAGCACAUCAGAAGGCAUUGUGGCUGACAGCAAAACUACCUGCAACAGAGGAUUGAGCAUCA
B6: chr14:78183846:78183847:+_ENSG00000119705_ENST00000557342|hu_hu|hu_hu_hu_mus_False|68_78 (ssRNA)
RNA: GGGAGUUCUACAGUCCGACGAUCUCUCAGAAAUCUUUCUUCAUCAGAUGUUUGAGCUGUUUGCGGAAGUUUUGGCCUUUGAGCUUGAACGUGGAUCUAUGGGAGGGAAAGCACUGUCAGAAAAGGUAAUUUUUUUUUUAAAGACAACAGAGGAUUGAGCAUCA
B7: chr18:78020638:78020639:+_ENSMUSG00000025428_ENSMUST00000026495|mus_hu|FALSE|FALSE (ssRNA)
RNA: GGGAGUUCUACAGUCCGACGAUCAUCAGCCCUGAUAGUGCCCAACAAGGCUUGGUGCUGGCUGACGACAUGAGACAAGAAAGCAUUCUCAAACUUUGUAAUCUUGCUGGGCUCCAGUUUAUCAAGAUAUCCCCUUACACCCGCCAACAGAGGAUUGAGCAUCA
B8: 37444613_37445649_2279_CDS_ENSMUSG00000026113_ENSMUST00000027287|mouse|control|control (ssRNA)
RNA: GGGAGUUCUACAGUCCGACGAUCACAGAUGAGGGCUGUCAGGGUUUGGCAGAAGACGACGUCACGGCGAUACUGCAGGCUGAGGUACGAGGCAAUGGUGGGGGCACUGUCCUGCAUGAGCAGGAAGACCAUGGCUGCCUUGGCCAACAGAGGAUUGAGCAUCA
B9: 23048678_23050075_2025_CDS_ENSMUSG00000026775_ENSMUST00000028117|mouse|control|control (ssRNA)
RNA: GGGAGUUCUACAGUCCGACGAUCAGUUUCAUUCCAUCUGUCAUUCUCAGGCAACAGUGAUACAUGCCCAAGUGUUGGCCCUCGAGGCAUGAUUGUAGCUUUAUUAAUUGGCAUUGCAUCCUUUGUGUAAUAUGCAAUAAUAGCCAACAGAGGAUUGAGCAUCA
B10: chr3:67279072:67279073:+_ENSMUSG00000027774_ENSMUST00000077271|mus_mus|motif|central (ssRNA)
RNA: GGGAGUUCUACAGUCCGACGAUCUGCCCAGAAUCCUACCUCUUGAUGAGAGGACUGUGAGUUUUGAGGCCAACAGGGGCGGUAUACACACAGCCCUUAUGUCCAAAAAAAAAAAAAGCAGUGAAGUAAAUUUAUAUAUAUUUUCAACAGAGGAUUGAGCAUCA
B11: chr14:89338683:89338684:+_ENSG00000165533_ENST00000346301|hu_hu|hu_hu_hu_mus_False|38_38 (ssRNA)
RNA: GGGAGUUCUACAGUCCGACGAUCGUGGUUGUUGUGGACCAGGGCCAGCCUGAAGCAUUGGUGGGCCAAGUUUGUAUCUCCGAUUCCCACAGCUAUGUGUCCCAAGUUGUACCAGACAUCAGCUGCCUCUUCUUCAUUUUCAGCCAACAGAGGAUUGAGCAUCA
B12: chr1:39494447:39494448:+_ENSG00000168653_ENST00000372967|hu_mus|hu_hu_hu_mus_False|88_108 (ssRNA)
RNA: GGGAGUUCUACAGUCCGACGAUCGCAUCGACCAGCCUUCUUAUAGGGCUGUUCACCGCUUAGGAACAUAAAGUGCCGGUCCAGGCUGAUGCCCAGCUUUUUCUGUAUGUCAAGGAAAGGCAUGGCUCUGCAGUGCCCUUGUCACAACAGAGGAUUGAGCAUCA
B13: chr12:21788615:21788616:-_ENSG00000111716_ENST00000350669|hu_hu|FALSE|FALSE (ssRNA)
RNA: GGGAGUUCUACAGUCCGACGAUCCUGGUUGAUAACGCUGGUUAAUCCCCGGGCAUUGAGGAUACAUGGAAGGCUCAGGAAGACUUCAUUCUCAAUGCCAUACAUCCCCUUUACCAUUGUUGACACGGGAUGAAUCCUGGAUAGCAACAGAGGAUUGAGCAUCA
B14: 115159941_115160061_2324_CDS_ENSMUSG00000032437_ENSMUST00000035010|mouse|control|control (ssRNA)
RNA: GGGAGUUCUACAGUCCGACGAUCGAGGAACUUGUUGAUAUCGUCCCCGGAAUAGCCAAUCACUCCUCCGAAAAUAACCAACACAUAAUCGACAUCAAGGGACCUCAUGAUUUUAUAGGCGGCCGUUUCAUUGGAAGACAUAGCCAACAGAGGAUUGAGCAUCA
B15: chr2:10930004:10930005:-_ENSG00000143870_ENST00000272227|hu_hu|FALSE|FALSE (ssRNA)
RNA: GGGAGUUCUACAGUCCGACGAUCGUCAUAAUCCACAGGAGACUCGCCUUUCUGAAAUAUCUUGAUUGUAGGAAAUCCUCUAAUCCCGUAUCGGGAGGCCAGAACCUGAUUGACUGUAGCAUCCACAGCUGCCAGUUUCACUUUCAACAGAGGAUUGAGCAUCA
B16: chr7:54825262:54825263:-_ENSG00000132432_ENST00000352861|hu_hu|FALSE|FALSE (ssRNA)
RNA: GGGAGUUCUACAGUCCGACGAUCCCGACUUGGCUCAACAAACUGCAUUACCUGAUCCAUGACUGCCUACCCAACCGACACCUAAAAUGCCAGGGACACGUAGCACUGGAGCUUGCUGAUGGAGGCCCACCGGAACCGGAAUCCCAACAGAGGAUUGAGCAUCA
B17: chr1:78444685:78444686:-_ENSG00000162613_ENST00000370768|hu_mus|FALSE|FALSE (ssRNA)
RNA: GGGAGUUCUACAGUCCGACGAUCGCCAGCCGAGCCAGACGACGGCGGAGGCACUGUGGAGUAGUCGGCCAUACCCACGCUACAGCACACGCUGCCGUUUCCUCGCGGAGGGAGGCGCCGCUCUCGGUUAACUGCUAAGAAAGGCAACAGAGGAUUGAGCAUCA
B18: chr9:35067926:35067927:-_ENSG00000165280_ENST00000358901|hu_mus|motif|central (ssRNA)
RNA: GGGAGUUCUACAGUCCGACGAUCUGGCUGGAUGCUGAUGACAUCUCCUAGGCGAACUCGGAGGUUAUUCCGAACAACUCGGUUCAUUCGAAUCUUCUCAUCAGAACACGUGUCAUCAGAAAGAACAAUGCAUACAGCUUCCCGCAACAGAGGAUUGAGCAUCA
B19: chr19:3980662:3980663:-_ENSG00000167658_ENST00000309311|hu_mus|FALSE|FALSE (ssRNA)
RNA: GGGAGUUCUACAGUCCGACGAUCGAACACUCUACCAAAGGCAUAGAAGCGGCCUUUGUCAGAGGUUGGCACCAUCUUGGAAAUGUACAUCAUAAGUGGGCCUUUGGGGUCGCAGCUCUUAAUACCCAUGGCGGCCUCAUCGUCCAACAGAGGAUUGAGCAUCA
B20: chr11:55313332:55313333:+_ENSMUSG00000018583_ENSMUST00000018727|mus_hu|motif|central (ssRNA)
RNA: GGGAGUUCUACAGUCCGACGAUCUCUUUAAAAGUCCGUUAUUCCUAAAAUAUCAUUCCACAAAAUUGGAAGUGAAAGACGGAAGGUCAGGAAAGGGAAGAGAGGGAGAGGGAGCACACACCAUUAACACACAAAAAAAGUAAACAACAGAGGAUUGAGCAUCA
B21: chr10:127182121:127182122:+_ENSMUSG00000044617_ENSMUST00000054287|mus_hu|FALSE|FALSE (ssRNA)
RNA: GGGAGUUCUACAGUCCGACGAUCGUCUCUUAUACAAAAGAGAUGCUGGGUAAUGUGUAUACAAAAACAAAAAUAAAUAAAUAUUAAUGUCCAAAAAGGCUUUGUGAGUUAAUGAAAACCACUUGCUUGUGAAACAGCCCGGGGCAACAGAGGAUUGAGCAUCA
B22: chr14:78183846:78183847:+_ENSG00000119705_ENST00000557342|hu_hu|hu_hu_hu_mus_False|68_88 (ssRNA)
RNA: GGGAGUUCUACAGUCCGACGAUCUCUCAGAAAUCUUUCUUCAUCAGCAUCAUCAGAUCCGUGCAAAAGUUUUGGCCUUUGAGCUUGAACGUGGAUCUAUGGGAGGGAAAGCACUGUCAGAAAAGGUAAUUUUUUUUUUAAAGACAACAGAGGAUUGAGCAUCA

molecular target: T1, UNK ZnF1-3 (human, UniProt Q9C0B0 31-174); assay: nsRBNS (natural sequence RNA bind-n-seq); RBNS binding buffer (assumed for nsRBNS): 25 mM Tris pH 7.5, 150 mM KCl, 3 mM MgCl2, 0.01% Triton X-100, 500 ug/ml BSA, 20 U/ml SUPERase-In, 4 C; UNK is unkempt and MSI1 is Musashi-1; names of the RNAs are library labels; protein concentration not given here; high values mean tight binding
T1 sequence: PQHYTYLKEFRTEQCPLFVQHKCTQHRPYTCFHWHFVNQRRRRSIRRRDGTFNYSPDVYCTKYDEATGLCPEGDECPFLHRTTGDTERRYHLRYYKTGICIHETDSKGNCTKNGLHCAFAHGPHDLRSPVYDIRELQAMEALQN

Binder | binding signal [enrichment R]
B1 | 1.44
B2 | 2.36
B3 | 0.737
B4 | 1.4
B5 | 1.17
B6 | 2.15
B7 | 1.37
B8 | 1.27
B9 | 0.804
B10 | 1.43
B11 | 0.875
B12 | 0.901
B13 | 0.497
B14 | 0.919
B15 | 1.15
B16 | 1.22
B17 | 0.78
B18 | 0.663
B19 | 1.18
B20 | 3.11
B21 | 1.16
B22 | 2.35
